Reference: the supplement of paper PMC4967469
pIC50: −log10 of the molar value. Lines with a small IC50 respond at low doses; fits outside the tested doses are given as limits. AUC is the area under the same curve over the 256-fold range up to the top dose, as a fraction; values near 1 show little effect. For part of these data: Any top dose called inferred was derived from the fitted curves, not read from the paper.

Key:
Assay in all cases: Viability of human cancer cell lines after 72 h of drug (GDSC screen)
CP724714 = compound: COCC(=O)NC/C=C/c1ccc2ncnc(Nc3ccc(Oc4ccc(C)nc4)c(C)c3)c2c1 [CP724714]; details: top dose 10.24 µM; top dose inferred
Description: (§1)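 Human cancer cell lines in 384-well plates, medium with 10% serum, drug for 72 h over a 256-fold dose range (nine 2-fold or five 4-fold steps up to the top dose). Adherent lines were fixed and stained with the nucleic acid dye Syto60, suspension lines read with resazurin; signal relative to control wells, capped at 0 and 100%. One two-parameter sigmoid per drug and line, fitted in a mixed model over all curves with the slope shared within a line.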

CX-5461 = compound: Cc1cnc(CNC(=O)c2c(=O)c3ccc(N4CCCN(C)CC4)nc3n3c2sc2ccccc23)cn1 [CX-5461]; details: top dose 10.24 µM; top dose inferred
Description: as §1

Obatoclax mesylate = compound: COC1=CC(c2cc3ccccc3[nH]2)=N/C1=C\c1[nH]c(C)cc1C [Obatoclax mesylate]; details: top dose 16 µM
Description: as §1

STF-62247 = compound: Cc1cccc(Nc2nc(-c3ccncc3)cs2)c1 [STF-62247]; details: top dose 10.24 µM; top dose inferred
Description: as §1

Cell Line | AUC (CP724714) | pIC50 (CP724714) | AUC (CX-5461) | pIC50 (CX-5461) | AUC (Obatoclax mesylate) | pIC50 (Obatoclax mesylate) | AUC (STF-62247) | pIC50 (STF-62247)
KYSE-70 (oesophagus, adherent) | 0.97 | < 4.99 | 0.978 | < 4.99 | 0.179 | 7.02 | 0.987 | < 4.99
KYSE-140 (oesophagus, adherent) | 0.952 | < 4.99 | 0.984 | < 4.99 | 0.072 | > 7.20 | 0.979 | < 4.99
KYSE-150 (oesophagus, adherent) | 0.985 | < 4.99 | 0.956 | < 4.99 | 0.175 | 6.96 | 0.989 | < 4.99
KYSE-180 (oesophagus, adherent) | 0.967 | < 4.99 | 0.788 | 5.37 | 0.152 | 7.05 | 0.942 | < 4.99
KYSE-220 (oesophagus, adherent) | 0.964 | < 4.99 | 0.964 | < 4.99 | 0.27 | 6.67 | 0.985 | < 4.99
KYSE-270 (oesophagus, adherent) | 0.976 | < 4.99 | 0.991 | < 4.99 | 0.078 | > 7.20 | 0.987 | < 4.99
KYSE-410 (oesophagus, adherent) | 0.916 | < 4.99 | 0.862 | 5.01 | 0.18 | 7.00 | 0.985 | < 4.99
KYSE-450 (oesophagus, adherent) | 0.897 | < 4.99 | 0.566 | 6.02 | 0.035 | > 7.20 | 0.982 | < 4.99
KYSE-510 (oesophagus, adherent) | 0.989 | < 4.99 | 0.939 | < 4.99 | 0.023 | > 7.20 | 0.992 | < 4.99
KYSE-520 (oesophagus, adherent) | 0.967 | < 4.99 | 0.982 | < 4.99 | 0.392 | 6.34 | 0.965 | < 4.99
LC-1-sq (lung squamous cell carcinoma, adherent) | 0.968 | < 4.99 | 0.969 | < 4.99 | 0.672 | 5.48 | 0.983 | < 4.99
LCLC-97TM1 (large cell lung carcinoma, adherent) | 0.911 | < 4.99 | 0.675 | 5.68 | 0.122 | > 7.20 | 0.944 | < 4.99
LCLC-103H (large cell lung carcinoma, adherent) | 0.99 | < 4.99 | 0.985 | < 4.99 | 0.071 | > 7.20 | 0.966 | < 4.99
LK-2 (lung squamous cell carcinoma, adherent) | 0.949 | < 4.99 | 0.944 | < 4.99 | 0.131 | 7.13 | 0.963 | < 4.99
LN-18 (glioma, adherent) | 0.991 | < 4.99 | 0.994 | < 4.99 | 0.217 | 6.73 | 0.994 | < 4.99
LN-229 (glioma, adherent) | 0.974 | < 4.99 | 0.986 | < 4.99 | 0.456 | 6.12 | 0.985 | < 4.99
LN-405 (glioma, adherent) | 0.984 | < 4.99 | 0.984 | < 4.99 | 0.488 | 6.03 | 0.983 | < 4.99
LNZTA3WT4 (glioma, adherent) | 0.969 | < 4.99 | 0.935 | < 4.99 | 0.458 | 6.11 | 0.98 | < 4.99
LOU-NH91 (lung squamous cell carcinoma, adherent) | 0.985 | < 4.99 | 0.986 | < 4.99 | 0.628 | 5.63 | 0.982 | < 4.99
LS-180 (large intestine, adherent) | 0.966 | < 4.99 | 0.909 | < 4.99 | 0.373 | 6.37 | 0.985 | < 4.99
LS-411N (large intestine, adherent) | 0.979 | < 4.99 | 0.779 | 5.29 | 0.265 | 6.74 | 0.953 | < 4.99
LU-99A (large cell lung carcinoma, adherent) | 0.982 | < 4.99 | 0.931 | < 4.99 | 0.42 | 6.22 | 0.985 | < 4.99
LU-135 (small cell lung carcinoma, suspension) | 0.992 | < 4.99 | 0.835 | 5.28 | 0.182 | 6.85 | 0.991 | < 4.99
LoVo (large intestine, adherent) | 0.987 | < 4.99 | 0.987 | < 4.99 | 0.202 | 6.89 | 0.965 | < 4.99
M14 (melanoma, adherent) | 0.987 | < 4.99 | 0.987 | < 4.99 | 0.423 | 6.22 | 0.974 | < 4.99
M059J (glioma, adherent) | 0.983 | < 4.99 | 0.872 | < 4.99 | 0.546 | 5.87 | 0.976 | < 4.99
MC-IXC (neuroblastoma, adherent) | 0.996 | < 4.99 | 0.752 | 5.58 | 0.177 | 6.80 | 0.991 | < 4.99
MCF7 (breast, adherent) | 0.98 | < 4.99 | 0.986 | < 4.99 | 0.034 | > 7.20 | 0.986 | < 4.99
MDA-MB-157 (breast, adherent) | 0.988 | < 4.99 | 0.988 | < 4.99 | 0.48 | 6.06 | 0.987 | < 4.99
MDA-MB-175-VII (breast, adherent) | 0.589 | 5.94 | 0.988 | < 4.99 | 0.607 | 5.69 | 0.981 | < 4.99
